# Assay results as given in PubChem BioAssay AID504332 (National Center for Advancing Translational Sciences (NCATS), 2011).
# Among all 350,000 compounds or so, about 31,000 (8.9%) were called active. The shares of active, inactive and inconclusive entries below differ from those in the screen. The call rests on the fitted dose curve; in most records, active means well fitted inhibition curve with a large enough effect; inconclusive means small, poorly fitted or top-dose-only effect; inactive means no such curve, though single readings can be large or run the other way. Where the call is inconclusive, the potency comes from a doubtful curve fit.
# Target: Histone-lysine N-methyltransferase EHMT2 (Homo sapiens) (UniProt Q96KQ7)
# Experiment: qHTS Assay for Inhibitors of Histone Lysine Methyltransferase G9a; further: nearly all actives have a fitted effect of over 75% in size
# Settings: G9a H3K9 monomethylation, AlphaScreen, 2 h; activity, negative = inhibition: at 59 µM (top of the series) unless noted
# Outline: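 Compounds were preincubated with 20 nM G9a for 15 min, after which biotinylated H3K9 peptide (500 nM) and SAM (20 uM) started a 2 h room-temperature reaction. Monomethylated product was quantified by antibody-based AlphaScreen chemiluminescence.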
# On the % scale 0 is the no-effect control and ±100 the full control effect; potency means the concentration at half of the fitted maximal effect; tags describe the fitted curve by direction and shape.
# Chain of UniProt Q96KQ7 (Q96KQ7 whole entry, looked up): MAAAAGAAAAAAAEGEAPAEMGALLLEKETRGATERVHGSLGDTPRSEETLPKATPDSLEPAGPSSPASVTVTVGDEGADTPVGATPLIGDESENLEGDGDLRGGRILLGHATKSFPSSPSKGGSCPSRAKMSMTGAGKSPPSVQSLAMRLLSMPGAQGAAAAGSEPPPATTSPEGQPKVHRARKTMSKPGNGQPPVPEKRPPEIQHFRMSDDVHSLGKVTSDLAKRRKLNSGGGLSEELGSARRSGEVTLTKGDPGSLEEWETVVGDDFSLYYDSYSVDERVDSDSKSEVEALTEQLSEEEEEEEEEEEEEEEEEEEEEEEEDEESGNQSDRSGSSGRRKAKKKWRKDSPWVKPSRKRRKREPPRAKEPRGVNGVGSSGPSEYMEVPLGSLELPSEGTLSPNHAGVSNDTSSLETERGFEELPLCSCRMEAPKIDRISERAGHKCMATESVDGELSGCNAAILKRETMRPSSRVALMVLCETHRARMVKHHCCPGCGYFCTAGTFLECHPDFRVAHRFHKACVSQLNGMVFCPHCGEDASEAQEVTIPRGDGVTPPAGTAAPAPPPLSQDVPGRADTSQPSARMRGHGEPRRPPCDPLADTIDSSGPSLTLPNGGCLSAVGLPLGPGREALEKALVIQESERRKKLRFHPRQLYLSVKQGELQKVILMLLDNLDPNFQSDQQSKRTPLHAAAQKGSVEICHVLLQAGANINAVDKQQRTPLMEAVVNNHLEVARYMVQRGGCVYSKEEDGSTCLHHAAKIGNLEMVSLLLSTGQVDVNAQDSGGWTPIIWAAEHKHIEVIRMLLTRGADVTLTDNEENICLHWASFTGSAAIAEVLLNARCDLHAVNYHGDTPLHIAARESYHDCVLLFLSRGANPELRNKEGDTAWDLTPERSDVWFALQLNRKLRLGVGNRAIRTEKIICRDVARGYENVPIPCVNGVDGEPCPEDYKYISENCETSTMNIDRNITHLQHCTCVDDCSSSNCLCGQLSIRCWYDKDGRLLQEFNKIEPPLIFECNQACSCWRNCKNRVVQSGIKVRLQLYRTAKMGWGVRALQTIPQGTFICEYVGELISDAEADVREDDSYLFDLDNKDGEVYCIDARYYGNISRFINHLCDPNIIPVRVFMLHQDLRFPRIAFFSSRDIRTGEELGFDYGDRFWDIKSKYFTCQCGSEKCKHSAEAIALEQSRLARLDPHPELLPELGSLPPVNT
Structure (SMILES),"activity, negative = inhibition",Potency
CC(NS(=O)(=O)c1ccccc1)C(c1cccs1)N1CCN(c2ccccc2)CC1 (stereo not drawn),inconclusive: -58.2% [inhibitor] [at 12.7 µM],–
Cc1cccc(C2c3[nH]c4ccccc4c3CCN2C(=O)c2noc3c2CCCC3)n1 (stereo not drawn),–,"inconclusive: 31.6 µM [inhibitor, partial curve]"
COc1ccccc1N1CCN(S(=O)(=O)CCNC(=O)Cc2ccc(Cl)cc2)CC1,–,inactive
COc1ccc2c3c([nH]c2c1)C1CC2C(CC(O)C(OC)C2CO)CN1CC3 (stereo not drawn),–,"inconclusive: 89.1 µM [inhibitor, partial curve, poor fit]"
CC(Oc1ccc(F)cc1)C(=O)Nc1nc(-c2ccccn2)cs1 (stereo not drawn),–,"inconclusive: 12.6 µM [inhibitor, partial curve, poor fit]"
CCOC(=O)N1CCc2c(sc(NCc3cccs3)c2C(=O)Nc2ccc(OC)cc2OC)C1,–,active: 2.82 µM
O=C(COCc1cc(-c2ccc3c(c2)OCO3)on1)Nc1cc(C(F)(F)F)ccc1Cl,–,inactive
CCCCn1c(N)c(N(CC(C)C)C(=O)COC(=O)c2ccccc2NCCO)c(=O)[nH]c1=O,–,active: 3.98 µM
CC(=O)Nc1ccc(S(=O)(=O)N2CCN(C(=O)c3ncoc3-c3cccc(F)c3)CC2)cc1,–,"inconclusive: 7.08 µM [inhibitor, partial curve, poor fit]"
CC(NC(=O)Cc1cccc(C(F)(F)F)c1)c1ccc(F)cc1 (stereo not drawn),–,"inconclusive: 89.1 µM [inhibitor, single point]"
Cc1snc(S(=O)(=O)/C(C#N)=N/Nc2ccc(C(F)(F)F)cc2)c1C#N,–,"inconclusive: 25.1 µM [inhibitor, single point]"
CC(C)(C)c1ccc(C(=O)NCCC(=O)Nc2ccc(S(=O)(=O)Nc3nccs3)cc2)cc1,–,"inconclusive: 44.7 µM [inhibitor, partial curve]"
CCC(CO)Oc1cc(NC(=O)c2ccc(F)cc2)c2ncn(C(C)C)c2c1 (stereo not drawn),inactive: 7.07% [at 0.501 µM],–
c1ccc(CN2CCN(Cc3cn4cccnc4n3)CC2)cc1,–,inactive
Cc1[nH]c2ccc(-c3nnc(SCC(=O)N4CCCc5ccccc54)o3)cc2c1C,–,"inconclusive: 56.2 µM [inhibitor, partial curve, poor fit]"
COc1ccc(Cc2nnc(NC(=O)Cn3cnc4c3c(=O)n(C)c(=O)n4C)s2)cc1,–,"inconclusive: 39.8 µM [inhibitor, single point]"
CCOc1nc(OCC)nc(N2CCC(C)CC2)n1,–,inactive
CCC(=O)c1ccc(OCCN2CCOCC2)cc1,inactive: 9.32% [at 12.7 µM],–
C=CCN(C(=O)CSc1nnnn1C)c1nc(-c2ccccc2)cs1,–,"inconclusive: 50.1 µM [inhibitor, partial curve, poor fit]"
COc1cccc(/C=N/NC(=O)CCc2c(C)n[nH]c2C)c1,–,"inconclusive: 7.08 µM [inhibitor, single point]"
O=C1N=c2ccc(Br)cc2=C1c1sc(=S)n(NS(=O)(=O)c2ccccc2)c1O,–,active: 15.8 µM
Cc1cccc(-n2c(C)cc(/C=C3\NC(=O)NC3=O)c2C)c1,–,active: 44.7 µM
COCC(=O)Nc1nc2ccc(S(C)(=O)=O)cc2s1,–,"inconclusive: 89.1 µM [inhibitor, partial curve, poor fit]"

Structure (SMILES),"activity, negative = inhibition",Potency
Cc1ccc(-n2nc(-c3ccco3)cc2C(=O)NCc2cccnc2)cc1,–,active: 2.51 µM
CN(C)CC1CCCCC1OC(=O)c1ccc(Br)cc1 (stereo not drawn),–,"inconclusive: 7.94 µM [inhibitor, partial curve, poor fit]"
COCC(C)n1c(C)cc(C(=O)COC(=O)c2ccc3c(c2)NC(=O)CS3)c1C (stereo not drawn),–,"inconclusive: 20 µM [inhibitor, single point]"
O=C(CCl)Nc1cc(S(=O)(=O)N2CCCCCC2)ccc1Cl,–,"inconclusive: 1.58 µM [inhibitor, full curve]"
CCc1ccc(OCC(=O)Nc2cc(-c3nc4cc(C)ccc4o3)ccc2C)cc1,–,"inconclusive: 39.8 µM [inhibitor, single point]"
COc1cc(C(=O)NC2CCCC2)c(Br)c(OC)c1OC,–,"inconclusive: 1.41 µM [inhibitor, partial curve]"
CC(=O)Nc1ccc(S(=O)(=O)NC2=C(N3CCN(Cc4ccccc4)CC3)C(=O)c3ccccc3C2=O)cc1,–,"inconclusive: 3.16 µM [inhibitor, single point]"
COCCN1C(=O)c2cc(C(=O)Nc3ccc(OC)c(OC)c3)ccc2C1Nc1ccc(OC)c(OC)c1 (stereo not drawn),–,"inconclusive: 44.7 µM [inhibitor, partial curve]"
COCCN(C(=O)COC(=O)c1ccc(Cl)nc1)c1c(N)n(Cc2ccccc2)c(=O)[nH]c1=O,–,"inconclusive: 79.4 µM [inhibitor, single point]"
O=C(COC(=O)Cc1ccsc1)Nc1ccc(Br)cc1F,inactive: 34.9% [at 12.7 µM],–
O=C(CCCSc1nc2ccccc2[nH]1)N1CCN(c2ccc([N+](=O)[O-])cc2)CC1,–,"inconclusive: 2.82 µM [inhibitor, partial curve, poor fit]"
COc1ccc2c(-c3ccccc3)cc(=S)[nH]c2c1,–,"inconclusive: 1.41 µM [inhibitor, single point]"
COc1cccc(CN2CCN(Cc3[nH]c4ccccc4c3C)CC2CCO)c1 (stereo not drawn),–,"inconclusive: 17.8 µM [inhibitor, partial curve]"
Cc1cccc2nc(CSc3ncccc3C(=O)O)cn12,–,"inconclusive: 50.1 µM [inhibitor, partial curve, poor fit]"
O=C(Nc1cccc(Cl)c1)Nc1ccc2nccnc2c1,–,active: 50.1 µM
O=C(Cc1c(F)cccc1Cl)N1CCOCC1,–,inactive
O=C(Nc1ccnn1C1CCN(Cc2cc(Cl)ccc2O)CC1)c1cccnc1,–,inactive
Cc1cc(-c2ccc(C)c(S(=O)(=O)NCc3cccs3)c2)on1,–,inactive
O=c1cc(-c2ccccc2)nc2nc[nH]n12,–,"inconclusive: 39.8 µM [inhibitor, single point]"
CCn1cc(C(=O)OCC(=O)c2cc(C)n(-c3ccc(OC(F)F)cc3)c2C)c(=O)c2ccc(C)nc21,–,"inconclusive: 35.5 µM [inhibitor, single point]"
O=C(CC(c1cccs1)S(=O)(=O)c1ccccc1)c1ccc(F)cc1 (stereo not drawn),–,active: 8.91 µM
O=[N+]([O-])c1ccc(Cl)cc1Sc1nc2ccccc2o1,–,"inconclusive: 28.2 µM [inhibitor, partial curve, poor fit]"
N#CCCN1CCN(C(=S)c2ccc(-c3ccc(Cl)cc3)o2)CC1,–,"inconclusive: 3.16 µM [inhibitor, partial curve, poor fit]"

Structure (SMILES),"activity, negative = inhibition",Potency
CCOC(=O)c1c(C)[nH]c(C)c1S(=O)(=O)N1CCC(C(=O)Nc2ccc(C)c(N(C)C)c2)CC1,–,"inconclusive: 35.5 µM [inhibitor, partial curve, poor fit]"
Cn1cc(S(=O)(=O)N2CCCC2)cc1C(=O)Nc1cccc(C(F)(F)F)c1,inactive: 17.4% [at 0.0925 µM],–
COc1ccc(OC)c(N=Cc2c(O)c3ccccc3oc2=O)c1,–,"inconclusive: 89.1 µM [inhibitor, single point]"
CC(=O)N(CCCN(C)C)c1nc2ccc(C)cc2s1,–,"inconclusive: 79.4 µM [inhibitor, partial curve, poor fit]"
S=C(c1ccc(Br)cc1)N1CCCC1,–,active: 44.7 µM
O=C(Nc1cnccn1)c1ccc(F)cc1Cl,–,"inconclusive: 89.1 µM [inhibitor, single point]"
CCCCN1C(=O)C(=Nc2cccc3cnccc23)c2ccccc21,–,active: 44.7 µM
Cc1ccc(Nc2c(-c3ccc(C)o3)nc3cccc(C)n23)cc1,–,active: 17.8 µM
O=c1c2oc3ccccc3c2n(Cc2ccc(Cl)cc2)c(=O)n1Cc1ccccc1,–,inactive
Cc1nn(-c2ccc(F)cc2)c(Cl)c1/C=C1\C(=O)Nc2ccccc21,–,inactive
Cc1nn(C(C)c2nc(-c3ccccc3)no2)c(C)c1[N+](=O)[O-] (stereo not drawn),–,inactive
Cc1cc(/C=N/NC(=O)c2c(Br)cnn2C)c(C)n1-c1cccc(Br)c1,–,"inconclusive: 1.41 µM [inhibitor, partial curve, poor fit]"
CC1CCN(CCCCOc2ccc(F)cc2)CC1,–,"inconclusive: 89.1 µM [inhibitor, single point]"
COc1ccccc1NC(=O)c1ccc(NC(=O)COC(=O)CC(NC(=O)c2ccccc2Cl)c2ccccc2)cc1 (stereo not drawn),–,"inconclusive: 39.8 µM [inhibitor, single point]"
CCSc1cc(C2C(C(=O)OC)=C(C)NC3=C2C(=O)CCC3)c(C)o1 (stereo not drawn),–,active: 7.08 µM
COCCn1c(Cc2ccccc2)nnc1SCC(=O)Nc1oc(C)c2c(C)n[nH]c(=O)c12,–,active: 14.1 µM
O=C(NC1CCCCC1)C1CC(=O)N(c2ccc(Cl)cc2)C1 (stereo not drawn),–,"inconclusive: 70.8 µM [inhibitor, partial curve, poor fit]"
O=C(Nc1cc(F)ccc1F)c1ccc(CN2CC(=O)N3CCCCC3C2=O)cc1 (stereo not drawn),–,inactive
COC(=O)C1=C(C)N(c2cccc(OC)c2)C(=O)/C1=C\c1ccco1,–,"inconclusive: 31.6 µM [inhibitor, single point]"
Cc1ccc(C)n1-c1nc(=S)[nH][nH]1,–,active: 1.26 µM
Cc1ccc(-c2nn(-c3cc(Cl)ccc3[N+](=O)[O-])c(=O)c3ccccc23)cc1,–,"inconclusive: 56.2 µM [inhibitor, single point]"
COc1ccc(C(=O)NCc2ccc3c(c2)OCO3)cc1S(=O)(=O)N1CCCC1,–,inactive
